# Measurements as given in publication PMC4336329 (PLoS ONE, 2015).
# Screen size: about 310,000 compounds; about 2,200 (0.71%) showed an effect of 50% or more. Effects have a minus sign here. The list shows a part of the results.
# Target: human ether-à-go-go-related gene (hERG) potassium channel (human, UniProt Q12809)
# Assay: primary screen, population patch clamp on CHO cells stably expressing hERG
# human ether-à-go-go-related gene (hERG) potassium channel, sequence (Q12809 whole entry, looked up): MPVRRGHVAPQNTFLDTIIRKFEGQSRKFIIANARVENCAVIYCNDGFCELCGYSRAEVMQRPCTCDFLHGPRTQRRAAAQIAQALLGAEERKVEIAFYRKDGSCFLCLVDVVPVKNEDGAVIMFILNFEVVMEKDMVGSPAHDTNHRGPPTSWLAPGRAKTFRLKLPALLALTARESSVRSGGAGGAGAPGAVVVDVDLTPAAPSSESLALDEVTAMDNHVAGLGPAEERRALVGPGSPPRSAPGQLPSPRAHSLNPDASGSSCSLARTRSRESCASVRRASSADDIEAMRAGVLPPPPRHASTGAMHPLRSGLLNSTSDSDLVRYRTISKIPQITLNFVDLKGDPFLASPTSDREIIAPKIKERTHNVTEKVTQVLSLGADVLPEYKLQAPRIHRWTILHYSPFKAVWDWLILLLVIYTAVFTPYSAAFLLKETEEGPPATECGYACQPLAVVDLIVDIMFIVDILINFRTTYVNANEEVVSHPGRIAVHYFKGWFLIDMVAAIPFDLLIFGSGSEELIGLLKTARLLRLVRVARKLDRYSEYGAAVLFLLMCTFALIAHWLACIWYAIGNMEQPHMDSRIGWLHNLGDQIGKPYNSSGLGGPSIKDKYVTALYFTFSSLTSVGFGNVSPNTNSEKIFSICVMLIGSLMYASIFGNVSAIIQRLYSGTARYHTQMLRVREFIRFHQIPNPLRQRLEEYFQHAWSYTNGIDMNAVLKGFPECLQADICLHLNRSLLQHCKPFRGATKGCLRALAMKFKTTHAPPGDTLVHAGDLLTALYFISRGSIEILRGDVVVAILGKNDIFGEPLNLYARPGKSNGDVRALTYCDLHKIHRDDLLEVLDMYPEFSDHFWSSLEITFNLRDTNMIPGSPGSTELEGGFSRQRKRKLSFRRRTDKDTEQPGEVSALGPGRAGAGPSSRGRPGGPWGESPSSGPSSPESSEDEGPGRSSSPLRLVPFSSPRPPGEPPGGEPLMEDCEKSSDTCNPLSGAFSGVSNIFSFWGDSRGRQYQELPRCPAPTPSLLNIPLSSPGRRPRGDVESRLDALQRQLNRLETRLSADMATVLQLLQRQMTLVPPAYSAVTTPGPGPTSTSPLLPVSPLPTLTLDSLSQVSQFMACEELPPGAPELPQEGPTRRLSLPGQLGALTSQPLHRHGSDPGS
row,Compound,"hERG current change (%, negative = inhibition) at 1uM"
1,CCc1ccccc1N(C(=O)Cn1nnc2ccccc21)C(C(=O)NCCOC)c1ccco1 (stereo not drawn),2.16%
2,COCCCN(C(=O)Cc1ccc(Cl)c(Cl)c1)c1c(N)n(Cc2ccccc2)c(=O)[nH]c1=O,11.1%
3,Cc1cccc(N(CC(=O)Nc2ccccc2-c2ccccc2)S(=O)(=O)c2ccccc2)c1C,10.5%
4,CCc1nnc(NC(=O)c2cc(-c3ccccn3)nc3ccccc23)s1,9.61%
5,CCOc1ncccc1C(=O)OCCCC(=O)c1ccc(Br)cc1,8.66%
6,COC(=O)c1ccccc1NC(=O)C1CC(=O)N(c2ccc(F)cc2)C1 (stereo not drawn),-15.5%
7,Cc1nnc(SCC(=O)NC(=O)NCCC(C)C)s1,16.7%
8,Cc1ccc(S(=O)(=O)N2CCCC2C(=O)O)s1 (stereo not drawn),6.46%
9,COCC(C)n1c(SCC(=O)NNC(=O)c2ccccc2)nc2ccccc2c1=O (stereo not drawn),9.66%
10,CC1(C(=O)NC2CCCC2)CCC(=O)N1Cc1ccccc1Cl (stereo not drawn),7.5%
11,CCOc1ccc(NC(=O)c2ccc(NC(=O)CSc3nc4ccccc4c(=O)[nH]3)cc2)cc1,5.3%
12,COc1ccc(C2=NN(c3nc(-c4ccccc4)c(CC(=O)O)s3)C(c3ccco3)C2)cc1 (stereo not drawn),8.19%
13,Nc1cc(Cl)ccc1C(=O)OCC(=O)NC1CCS(=O)(=O)C1 (stereo not drawn),-6.02%
14,CCOc1ccccc1NC(=O)COn1nnc2ccccc21,11.8%
15,CC(C)CCNC(=O)CCCn1c(=O)[nH]c2ccc(Br)cc2c1=O,13.5%
16,CC(C)(C)c1nnc2sc(SCC(=O)c3cccs3)nn2c1=O,-7.08%
17,Fc1cccc2sc(N3CCCC3)nc12,6.18%
18,Cc1ccc(C)c(NC(=O)COc2cccc3c2CCN(Cc2ccccc2)C3=O)c1,-5.29%
19,COCCCn1c(N)c(-c2nc3ccccc3n2C)c2nc3ccccc3nc21,-0.792%

row,Compound,"hERG current change (%, negative = inhibition) at 1uM"
1,O=C(CSc1nnc(NC(=O)c2ccccc2)s1)NCC1CCCO1 (stereo not drawn),9.21%
2,CCN(Cc1ccc(N(C)C)cc1)C(C)C(=O)Nc1ccc(S(=O)(=O)N2CCCC2)cc1 (stereo not drawn),10.4%
3,CN1CCC(=NNC(=O)C(=O)Nc2ccccc2F)CC1,8.71%
4,CC1(C)C(CSc2nc3ccccc3[nH]2)C1(Cl)Cl (stereo not drawn),9.58%
5,Cc1ccc(NC(=O)COC(=O)CNC(=O)C2CCCCC2)c(Br)c1,10.8%
6,NC(=O)C1CCN(S(=O)(=O)c2ccc3c(c2)OCCO3)CC1,8.22%
7,CC(C)c1ccc(/C=C/C2=NNC(=O)CC2)cc1,-0.053%
8,COc1ccc(S(=O)(=O)N2CCC3(CC2)OCCO3)cc1,5.3%
9,COc1cccc(CNc2ncn[nH]2)c1OCc1ccccc1F,4.14%
10,CCOc1ccc(N(CC(=O)Nc2c(C)cccc2C)S(=O)(=O)c2c(C)[nH]c(=O)[nH]c2=O)cc1,15.5%
11,Cc1ccc(-c2c[nH]c(=S)n2-c2ccccc2F)cc1,15.4%
12,O=C(OCCNC(=O)c1cc2ccccc2oc1=O)c1cccnc1,7.47%
13,O=C(Nc1ccccc1)N1CCN(C(=O)Nc2ccccc2)CC1,-4.42%
14,CCOC(=O)c1sc(-n2[nH]c(C)cc2=O)nc1C,-7.86%
15,COC(=O)C1=C(c2cccc(C#N)c2)C[C@@H]2CC[C@H]1N2C(=O)NCC1CC1,13.7%
16,CC1CCC(Nc2nnnn2-c2ccccc2)CC1 (stereo not drawn),13.3%
17,O=C(COC(=O)CCN1C(=O)c2cccc([N+](=O)[O-])c2C1=O)NCc1ccccc1,23%
18,Brc1cccc(CSc2nnc(-c3ccncc3)o2)c1,-1.12%
19,CCOC(=O)c1ccccc1NC(=O)Nc1ccc(OC)c(OC)c1,-4.33%

row,Compound,"hERG current change (%, negative = inhibition) at 1uM"
1,Cc1oc(CSCCSCc2cc(C(=O)O)c(C)o2)cc1C(=O)O,16.7%
2,Brc1ccc(NC(c2ccccc2)c2ccncc2)cc1.Cl (stereo not drawn),17.3%
3,CCc1ccc2nc(NC(=O)C3CCN(c4ncnc5sc(C)c(C)c45)CC3)sc2c1,13.8%
4,CCOc1ccc(CCNC(=O)c2cc3sccc3n2C)cc1OCC,-2.49%
5,COc1ccc(/C=N/NC2=NS(=O)(=O)c3ccccc32)cc1OC,16.4%
6,O=C(CSc1ccc([N+](=O)[O-])cn1)Nc1ccccc1N1CCOCC1,5.87%
7,C=C(C)Cn1c(-c2ccccc2)nc2ccccc21,0.175%
8,CC(C)CNS(=O)(=O)c1ccc(CCC(=O)O)cc1,10.9%
9,COc1ccc(CCNC(=O)c2csc3c2CCCC3)cc1OC,16%
10,CC(C)c1ccc(N2C(=O)NC(=O)/C(=C/C=C/c3ccco3)C2=O)cc1,3.71%
11,COc1ccc(OC)c(NC(=O)c2cc3ccccc3o2)c1,12.8%
12,COCCN(C(=S)Nc1c(C)cc(C)cc1C)C(C)c1cccnc1 (stereo not drawn),11.6%
13,NS(=O)(=O)c1cccc(NC(=O)COC(=O)CCSc2ccccc2)c1,-5.4%
14,O=C(Nc1ccnn1C1CCN(C(=O)c2c(F)cccc2F)CC1)C1CC1,0.172%
15,CN(C)c1ccc(-c2nnc(-c3ccc(S(=O)(=O)C(F)F)cc3)o2)cc1,2.22%
16,CC(C)(C)NC(=O)CSc1nnc(-c2ccco2)n1Cc1ccco1,-6.99%
17,CC(C)C(=O)NCCc1nc(-c2ccccc2)no1,-2.6%
18,C[C@H](NC(=O)[C@H]1N2C(=O)c3ccccc3C2SC1(C)C)C(=O)NCC1CCCO1 (stereo partly drawn),36.2%
19,C#CCOCCOCCOCCNc1nc(N2CCN(C(=O)C([C@@H](C)CC)n3cc(C(N)COC(=O)C(F)(F)F)nn3)CC2)nc(N2CCN(C(=O)[C@H](Cc3cc4ccccc4[nH]3)n3cc(C(N)CO)nn3)CC2)n1.Cl (stereo partly drawn),7.2%
